For assay [1], the target named is T1, Flag-KDM4A (UniProt O75164).
T1 sequence: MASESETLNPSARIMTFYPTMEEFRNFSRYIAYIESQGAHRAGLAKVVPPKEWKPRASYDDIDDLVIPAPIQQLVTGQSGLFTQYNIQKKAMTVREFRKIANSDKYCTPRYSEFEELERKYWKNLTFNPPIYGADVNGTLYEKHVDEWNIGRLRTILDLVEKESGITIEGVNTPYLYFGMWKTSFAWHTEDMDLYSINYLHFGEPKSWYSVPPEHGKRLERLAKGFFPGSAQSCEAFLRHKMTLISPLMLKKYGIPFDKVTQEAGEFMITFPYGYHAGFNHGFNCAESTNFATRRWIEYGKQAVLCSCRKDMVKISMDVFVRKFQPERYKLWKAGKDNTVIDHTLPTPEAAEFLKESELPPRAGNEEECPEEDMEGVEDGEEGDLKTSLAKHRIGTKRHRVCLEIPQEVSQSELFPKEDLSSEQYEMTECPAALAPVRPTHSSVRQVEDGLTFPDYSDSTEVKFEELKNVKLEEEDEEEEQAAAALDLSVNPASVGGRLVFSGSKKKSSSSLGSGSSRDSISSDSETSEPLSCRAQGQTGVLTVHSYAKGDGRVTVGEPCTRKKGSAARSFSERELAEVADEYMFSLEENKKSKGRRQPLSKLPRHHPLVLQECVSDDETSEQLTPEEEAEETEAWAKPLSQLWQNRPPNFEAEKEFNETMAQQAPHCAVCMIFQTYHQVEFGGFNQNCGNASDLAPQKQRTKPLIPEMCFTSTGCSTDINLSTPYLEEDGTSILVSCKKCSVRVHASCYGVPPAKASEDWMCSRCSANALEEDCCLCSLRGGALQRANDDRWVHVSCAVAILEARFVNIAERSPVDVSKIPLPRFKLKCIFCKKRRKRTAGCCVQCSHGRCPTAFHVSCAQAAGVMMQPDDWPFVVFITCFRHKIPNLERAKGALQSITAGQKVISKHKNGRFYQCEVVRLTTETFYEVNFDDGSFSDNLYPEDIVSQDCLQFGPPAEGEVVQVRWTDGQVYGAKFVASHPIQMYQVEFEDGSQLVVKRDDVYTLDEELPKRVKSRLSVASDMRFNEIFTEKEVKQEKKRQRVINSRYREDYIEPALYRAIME
Nature of the assay: co-IP; anti-Flag M2 agarose beads, 2 h at 4 °C, lysates of transfected cells (293T where stated) in 0.3% CHAPS, 50 mM Hepes, 120 mM NaCl, 2 mM EDTA, sonicated; washed with lysis buffer containing 150 mM NaCl and with TBS.

The chains behind the UniProt entries cited, without tags or fusion partners. Where a name states a change or a piece, a line headed by the entry shows the natural chain unless it says otherwise. Residues count along the entry.
UniProt O94953: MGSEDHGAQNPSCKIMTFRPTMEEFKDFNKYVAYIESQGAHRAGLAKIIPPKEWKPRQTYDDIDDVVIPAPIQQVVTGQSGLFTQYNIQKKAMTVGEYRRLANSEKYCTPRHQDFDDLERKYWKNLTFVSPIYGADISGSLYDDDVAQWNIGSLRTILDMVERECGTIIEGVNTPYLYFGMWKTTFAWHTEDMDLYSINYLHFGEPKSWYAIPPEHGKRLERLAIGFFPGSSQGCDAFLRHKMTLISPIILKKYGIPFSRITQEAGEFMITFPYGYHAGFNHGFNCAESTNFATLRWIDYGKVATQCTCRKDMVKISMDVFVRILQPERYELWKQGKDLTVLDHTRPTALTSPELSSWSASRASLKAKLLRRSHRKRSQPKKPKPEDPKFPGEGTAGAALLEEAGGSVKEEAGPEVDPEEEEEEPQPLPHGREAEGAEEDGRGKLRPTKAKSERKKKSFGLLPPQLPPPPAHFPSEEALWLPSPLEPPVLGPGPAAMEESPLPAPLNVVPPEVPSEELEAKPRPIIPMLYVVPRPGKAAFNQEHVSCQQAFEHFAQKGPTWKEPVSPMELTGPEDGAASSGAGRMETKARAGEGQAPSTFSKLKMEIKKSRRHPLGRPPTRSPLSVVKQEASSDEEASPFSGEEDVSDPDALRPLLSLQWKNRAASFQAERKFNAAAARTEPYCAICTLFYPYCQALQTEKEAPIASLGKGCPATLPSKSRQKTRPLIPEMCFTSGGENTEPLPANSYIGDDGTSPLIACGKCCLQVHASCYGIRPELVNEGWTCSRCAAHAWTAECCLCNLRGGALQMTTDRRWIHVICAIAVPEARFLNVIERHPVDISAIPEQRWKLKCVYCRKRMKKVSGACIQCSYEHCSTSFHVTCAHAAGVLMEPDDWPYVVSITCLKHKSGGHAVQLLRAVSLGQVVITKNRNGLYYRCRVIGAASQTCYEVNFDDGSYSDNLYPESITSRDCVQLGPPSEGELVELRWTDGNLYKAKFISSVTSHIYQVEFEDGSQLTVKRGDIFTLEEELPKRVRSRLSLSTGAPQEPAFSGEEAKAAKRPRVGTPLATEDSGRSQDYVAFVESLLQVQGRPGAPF
UniProt Q8TB45: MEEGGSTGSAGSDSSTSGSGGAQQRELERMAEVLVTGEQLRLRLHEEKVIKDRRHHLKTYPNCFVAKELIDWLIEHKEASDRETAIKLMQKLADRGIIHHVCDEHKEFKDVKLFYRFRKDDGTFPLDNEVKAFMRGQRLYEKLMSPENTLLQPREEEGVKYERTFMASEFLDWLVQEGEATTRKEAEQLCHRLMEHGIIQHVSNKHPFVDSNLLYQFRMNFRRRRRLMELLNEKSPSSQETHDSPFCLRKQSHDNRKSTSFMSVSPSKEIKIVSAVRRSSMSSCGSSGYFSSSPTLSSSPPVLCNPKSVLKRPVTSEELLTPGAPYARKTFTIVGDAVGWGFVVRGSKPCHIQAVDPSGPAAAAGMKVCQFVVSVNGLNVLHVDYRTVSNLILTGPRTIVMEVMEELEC
Flag-DEPTOR PDZ domain: residues 330-407 of Q8TB45
UniProt Q8N122: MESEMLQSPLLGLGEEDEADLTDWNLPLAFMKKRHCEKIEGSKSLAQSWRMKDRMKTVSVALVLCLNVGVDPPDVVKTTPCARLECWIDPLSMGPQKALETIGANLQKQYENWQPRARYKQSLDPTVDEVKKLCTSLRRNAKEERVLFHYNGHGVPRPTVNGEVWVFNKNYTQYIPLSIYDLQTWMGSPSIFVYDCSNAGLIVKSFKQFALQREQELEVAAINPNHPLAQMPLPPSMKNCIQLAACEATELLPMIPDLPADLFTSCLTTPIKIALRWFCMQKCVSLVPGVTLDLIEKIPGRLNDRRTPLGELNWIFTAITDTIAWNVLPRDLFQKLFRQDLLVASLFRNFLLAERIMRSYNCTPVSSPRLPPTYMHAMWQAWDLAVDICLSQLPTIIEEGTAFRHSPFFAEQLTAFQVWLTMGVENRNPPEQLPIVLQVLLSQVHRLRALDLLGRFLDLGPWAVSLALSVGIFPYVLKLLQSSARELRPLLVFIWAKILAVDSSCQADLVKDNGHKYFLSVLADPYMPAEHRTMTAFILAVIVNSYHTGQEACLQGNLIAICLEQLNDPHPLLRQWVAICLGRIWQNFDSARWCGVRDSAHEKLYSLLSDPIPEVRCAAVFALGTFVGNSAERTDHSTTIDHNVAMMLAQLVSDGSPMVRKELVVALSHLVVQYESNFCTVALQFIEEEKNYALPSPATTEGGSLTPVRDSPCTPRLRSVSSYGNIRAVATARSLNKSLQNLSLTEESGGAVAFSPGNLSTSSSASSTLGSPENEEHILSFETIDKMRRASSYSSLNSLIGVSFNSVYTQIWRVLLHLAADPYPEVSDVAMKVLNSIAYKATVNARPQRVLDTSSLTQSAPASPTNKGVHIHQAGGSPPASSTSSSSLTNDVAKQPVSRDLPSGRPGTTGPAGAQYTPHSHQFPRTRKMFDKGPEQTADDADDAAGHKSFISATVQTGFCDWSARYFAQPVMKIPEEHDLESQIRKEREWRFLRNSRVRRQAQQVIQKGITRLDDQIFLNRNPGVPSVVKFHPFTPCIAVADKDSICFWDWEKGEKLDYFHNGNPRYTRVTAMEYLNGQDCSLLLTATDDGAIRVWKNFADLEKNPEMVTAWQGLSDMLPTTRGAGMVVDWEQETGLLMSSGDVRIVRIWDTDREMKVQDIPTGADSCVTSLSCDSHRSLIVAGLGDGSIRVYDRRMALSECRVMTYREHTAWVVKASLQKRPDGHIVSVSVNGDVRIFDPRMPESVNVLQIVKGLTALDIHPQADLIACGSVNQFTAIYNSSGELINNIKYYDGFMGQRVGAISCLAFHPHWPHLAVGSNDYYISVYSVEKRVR

The target of assay [2] is T2, KDM4A (endogenous) (human (endogenous in 293E, HeLa, NHA-hTERT)) (UniProt O75164).
T2 sequence: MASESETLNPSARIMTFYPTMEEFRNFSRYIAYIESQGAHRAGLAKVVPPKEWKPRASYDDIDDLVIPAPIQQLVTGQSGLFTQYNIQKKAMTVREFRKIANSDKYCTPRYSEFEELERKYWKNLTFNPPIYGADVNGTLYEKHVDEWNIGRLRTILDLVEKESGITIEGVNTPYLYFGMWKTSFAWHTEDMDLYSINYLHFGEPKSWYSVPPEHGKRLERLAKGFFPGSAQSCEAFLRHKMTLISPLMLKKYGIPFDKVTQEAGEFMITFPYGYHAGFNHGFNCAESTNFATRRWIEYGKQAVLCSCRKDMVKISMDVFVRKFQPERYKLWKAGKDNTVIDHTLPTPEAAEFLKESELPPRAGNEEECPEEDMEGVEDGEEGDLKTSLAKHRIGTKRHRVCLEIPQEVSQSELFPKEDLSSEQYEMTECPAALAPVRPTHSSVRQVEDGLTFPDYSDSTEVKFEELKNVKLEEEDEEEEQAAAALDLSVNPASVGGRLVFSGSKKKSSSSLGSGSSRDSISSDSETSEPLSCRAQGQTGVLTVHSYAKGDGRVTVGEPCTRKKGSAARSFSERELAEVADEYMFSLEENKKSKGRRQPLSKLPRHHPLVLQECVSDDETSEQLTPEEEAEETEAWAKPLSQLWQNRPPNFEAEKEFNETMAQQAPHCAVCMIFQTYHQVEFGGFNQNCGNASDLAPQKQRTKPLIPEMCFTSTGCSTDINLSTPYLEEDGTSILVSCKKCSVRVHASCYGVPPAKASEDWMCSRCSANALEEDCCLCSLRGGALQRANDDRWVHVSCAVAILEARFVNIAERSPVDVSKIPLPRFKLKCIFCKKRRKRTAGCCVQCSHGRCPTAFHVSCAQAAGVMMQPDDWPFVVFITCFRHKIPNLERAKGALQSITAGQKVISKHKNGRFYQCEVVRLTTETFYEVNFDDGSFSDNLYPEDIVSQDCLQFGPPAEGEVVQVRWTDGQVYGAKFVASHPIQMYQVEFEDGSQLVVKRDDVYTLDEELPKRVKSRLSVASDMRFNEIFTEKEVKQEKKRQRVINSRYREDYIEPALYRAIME
Nature of the assay: co-IP; endogenous proteins; about 2 x 10^8 cells (NHAs, HeLa or 293E) in lysis buffer A with 0.5% Triton; 12 μg KDM4A or KDM4B antibody overnight at 4 °C, M-280 streptavidin-coated dynabeads 1 h; NO66 antibody as negative control.

Assay [3] concerns the target KDM4B (endogenous) (human (endogenous in NHAs, HeLa or 293E)) (UniProt O94953). The description is as above.
Assay [4] addresses Flag-DEPTOR (full length) (UniProt Q8TB45). Nature of the assay: co-IP; anti-Flag M2 agarose beads, as the other Flag immunoprecipitations (0.3% CHAPS, 50 mM Hepes, 120 mM NaCl, 2 mM EDTA) but samples not sonicated (Fig. 3f).
For assay [5], the target named is Flag-DEPTOR PDZ domain (UniProt Q8TB45). The description is as above.
Assay [6] has as its target Flag-DEPTOR (full length) (UniProt Q8TB45). Kind of assay: co-IP; anti-Flag M2 agarose beads, 2 h at 4 °C, lysates of transfected cells (293T where stated) in 0.3% CHAPS, 50 mM Hepes, 120 mM NaCl, 2 mM EDTA, sonicated; washed with lysis buffer containing 150 mM NaCl and with TBS.
Assay [7] has as its target GST-DEPTOR (UniProt Q8TB45). Kind of assay: condition: 500 ng of His-KDM4A (aa 1–562) with 1 μg of GST-DEPTOR; pull-down; 1 μg GST-DEPTOR on glutathione beads with 500 ng His-KDM4A fragment, 2 h at 4 °C, 25 mM HEPES pH 7.5, 250 mM KCl, 0.1% NP-40, 10% glycerol, 100 μg/ml BSA; both purified.
Assay [8] has as its target GST-DEPTOR (UniProt Q8TB45). Nature of the assay: condition: 500 ng of His-KDM4A (aa 563–1064) with 1 μg of GST-DEPTOR; pull-down; 1 μg GST-DEPTOR on glutathione beads with 500 ng His-KDM4A fragment, 2 h at 4 °C, 25 mM HEPES pH 7.5, 250 mM KCl, 0.1% NP-40, 10% glycerol, 100 μg/ml BSA; both purified.

Results are given in words; binding and its absence hold for the method and conditions named. For some of these results: Binding seen in cells or lysates may run through a third protein. Some entries that bind do so weakly or less than the wild type. For some of these results: Sequences can lack the tags named with a protein.

As to “DEPTOR (endogenous) (from UniProt Q8TB45 1-409)”, the binding entry in assay [1], in assay [2] and in assay [3] was “binds” throughout.

Consider HA-DEPTOR (from UniProt Q8TB45 1-409), for which, in assay [1], the binding result was “binds”.

Consider “Raptor (endogenous) (from UniProt Q8N122 1-1335)”, for which, in assay [1], the binding entry is listed as “binds weakly”.

B1: KDM4A (endogenous) (enzyme, UniProt O75164 1-1064)
chain: MASESETLNPSARIMTFYPTMEEFRNFSRYIAYIESQGAHRAGLAKVVPPKEWKPRASYDDIDDLVIPAPIQQLVTGQSGLFTQYNIQKKAMTVREFRKIANSDKYCTPRYSEFEELERKYWKNLTFNPPIYGADVNGTLYEKHVDEWNIGRLRTILDLVEKESGITIEGVNTPYLYFGMWKTSFAWHTEDMDLYSINYLHFGEPKSWYSVPPEHGKRLERLAKGFFPGSAQSCEAFLRHKMTLISPLMLKKYGIPFDKVTQEAGEFMITFPYGYHAGFNHGFNCAESTNFATRRWIEYGKQAVLCSCRKDMVKISMDVFVRKFQPERYKLWKAGKDNTVIDHTLPTPEAAEFLKESELPPRAGNEEECPEEDMEGVEDGEEGDLKTSLAKHRIGTKRHRVCLEIPQEVSQSELFPKEDLSSEQYEMTECPAALAPVRPTHSSVRQVEDGLTFPDYSDSTEVKFEELKNVKLEEEDEEEEQAAAALDLSVNPASVGGRLVFSGSKKKSSSSLGSGSSRDSISSDSETSEPLSCRAQGQTGVLTVHSYAKGDGRVTVGEPCTRKKGSAARSFSERELAEVADEYMFSLEENKKSKGRRQPLSKLPRHHPLVLQECVSDDETSEQLTPEEEAEETEAWAKPLSQLWQNRPPNFEAEKEFNETMAQQAPHCAVCMIFQTYHQVEFGGFNQNCGNASDLAPQKQRTKPLIPEMCFTSTGCSTDINLSTPYLEEDGTSILVSCKKCSVRVHASCYGVPPAKASEDWMCSRCSANALEEDCCLCSLRGGALQRANDDRWVHVSCAVAILEARFVNIAERSPVDVSKIPLPRFKLKCIFCKKRRKRTAGCCVQCSHGRCPTAFHVSCAQAAGVMMQPDDWPFVVFITCFRHKIPNLERAKGALQSITAGQKVISKHKNGRFYQCEVVRLTTETFYEVNFDDGSFSDNLYPEDIVSQDCLQFGPPAEGEVVQVRWTDGQVYGAKFVASHPIQMYQVEFEDGSQLVVKRDDVYTLDEELPKRVKSRLSVASDMRFNEIFTEKEVKQEKKRQRVINSRYREDYIEPALYRAIME
Regarding B1, the binding result in assay [4], in assay [5] and in assay [6] was “binds” each time.

B2: His-KDM4A(aa 1-562) (domain or fragment, UniProt O75164 1-562)
chain: MASESETLNPSARIMTFYPTMEEFRNFSRYIAYIESQGAHRAGLAKVVPPKEWKPRASYDDIDDLVIPAPIQQLVTGQSGLFTQYNIQKKAMTVREFRKIANSDKYCTPRYSEFEELERKYWKNLTFNPPIYGADVNGTLYEKHVDEWNIGRLRTILDLVEKESGITIEGVNTPYLYFGMWKTSFAWHTEDMDLYSINYLHFGEPKSWYSVPPEHGKRLERLAKGFFPGSAQSCEAFLRHKMTLISPLMLKKYGIPFDKVTQEAGEFMITFPYGYHAGFNHGFNCAESTNFATRRWIEYGKQAVLCSCRKDMVKISMDVFVRKFQPERYKLWKAGKDNTVIDHTLPTPEAAEFLKESELPPRAGNEEECPEEDMEGVEDGEEGDLKTSLAKHRIGTKRHRVCLEIPQEVSQSELFPKEDLSSEQYEMTECPAALAPVRPTHSSVRQVEDGLTFPDYSDSTEVKFEELKNVKLEEEDEEEEQAAAALDLSVNPASVGGRLVFSGSKKKSSSSLGSGSSRDSISSDSETSEPLSCRAQGQTGVLTVHSYAKGDGRVTVGEPCTR
For B2, the binding result in assay [7] was “no binding”.

B3: His-KDM4A(aa 563-1064) (domain or fragment, UniProt O75164 563-1064)
chain: KKGSAARSFSERELAEVADEYMFSLEENKKSKGRRQPLSKLPRHHPLVLQECVSDDETSEQLTPEEEAEETEAWAKPLSQLWQNRPPNFEAEKEFNETMAQQAPHCAVCMIFQTYHQVEFGGFNQNCGNASDLAPQKQRTKPLIPEMCFTSTGCSTDINLSTPYLEEDGTSILVSCKKCSVRVHASCYGVPPAKASEDWMCSRCSANALEEDCCLCSLRGGALQRANDDRWVHVSCAVAILEARFVNIAERSPVDVSKIPLPRFKLKCIFCKKRRKRTAGCCVQCSHGRCPTAFHVSCAQAAGVMMQPDDWPFVVFITCFRHKIPNLERAKGALQSITAGQKVISKHKNGRFYQCEVVRLTTETFYEVNFDDGSFSDNLYPEDIVSQDCLQFGPPAEGEVVQVRWTDGQVYGAKFVASHPIQMYQVEFEDGSQLVVKRDDVYTLDEELPKRVKSRLSVASDMRFNEIFTEKEVKQEKKRQRVINSRYREDYIEPALYRAIME
As for B3, the binding result in assay [8] is reported as “no binding”.

Values taken from publication PMC5027283.
